PubChem BioAssay AID463173 (ICCB-Longwood Screening Facility, Harvard Medical School, 2010)
Among all 52,000 compounds or so, about 4,300 (8.3%) were called active. Cut-off read from the data, not from the text of the source: active = survival mostly below about 52% (no sharp cut-off); inactive = mostly above about 56%. Some of the results follow.

system: DeltatarO mutant; assay: growth inhibition of S. aureus wild type versus tarO mutant, primary screen, teichoic acid synthesis inhibitors, RN4220, OD600 (AID 463173); conditions: OD600, 18 h, hits give low values, screened at 18.75 µg/mL (by protocol)

Structure (SMILES) | survival
COc1ccc(C2c3[nH]c4ccc(OC)cc4c3CCN2C(=O)Nc2ccccc2)cc1 (configuration not stated) | inactive: 94%
O=C(O)CCNc1ccc(Cl)cn1 | inactive: 100%
CN1CCC(OC(=O)c2cc3cc(Cl)cc(Cl)c3oc2=O)CC1 | inactive: 102%
O=C(N1CCOCC1)N1CCc2ccccc21 | inactive: 62%
Cc1cccc(C(=O)Nc2ccc(OCc3cc(=O)n4c5c(sc4n3)CCCC5)cc2)c1 | inactive: 71%
COc1ccccc1Nc1nn2c(=O)c3ccc(C(=O)NC(C)c4ccccc4)cc3nc2s1 (configuration not stated) | inactive: 87%
NC1(C2CCCCC2=O)CCCCC1 (configuration not stated) | inactive: 93%
COC(=O)c1ccccc1NC(=O)c1cc2c(-c3ccc(OC)c(OC)c3)nn(C)c2s1 | inactive: 97%
C=CCC(CC=C)(CNC(=O)C(=O)Nc1ccc(C(=O)OCC)cc1)c1ccccc1 | inactive: 73%
O=C(/C=C/c1cn(CC(O)CN2CCCCCC2)c2ccccc12)c1ccc(Br)cc1 (configuration not stated) | active: -3%
Cc1ccc(-c2nc3ccccn3c2Nc2ccc3c(c2)OCO3)o1 | active: 34%
Cc1ccc(NC(=O)C(Cc2ccccc2)n2cccc2)cc1C (configuration not stated) | active: 28%
CCCN(C(=O)c1cc2c(s1)-c1c(C)cccc1OC2)c1ccc(OCC)cc1 | inactive: 98%
CC(C)c1ccc(Nc2nc3c(S(=O)(=O)c4ccc(Br)cc4)nnn3c3ccsc23)cc1 | inactive: 76%
COc1ccc(-c2nn(-c3cccc([N+](=O)[O-])c3)c3c2cnc2cc4c(cc23)OCO4)cc1 | inactive: 87%
COc1cccc(NS(=O)(=O)c2ccc3c(c2)CCCN3C(=O)C2CCC2)c1 | inactive: 100%
Cc1cc2nc(-c3cccc(NC(=O)CSc4ccc(Cl)cc4)c3)oc2cc1C | inactive: 58%
CCOC(=O)c1cc(-c2ccc(C)cc2)n(CC(=O)NC2CCCCCC2)c1C | inactive: 101%
Cc1ccc(C)c(NC(=O)C(c2ccccc2)N2Cc3ccccc3C2=O)c1 (configuration not stated) | inactive: 117%

Structure (SMILES) | survival
COc1ccc(-c2cc(=O)oc3c4c(ccc23)OCN(Cc2cccc(OC)c2)C4)cc1 | active: 38%
COC(=O)c1ccccc1NC(=O)Cn1c(=O)n(CCCC(=O)NCc2ccccc2OC)c(=O)c2ccccc21 | inactive: 130%
COC(=O)c1ccc(NC(=O)COC(=O)CSc2nc(C)cc(C)n2)cc1 | inactive: 84%
COc1cc2cc(CNc3ccccc3)c(=O)n(CC(=O)Nc3cc(C)cc(C)c3)c2cc1OC | inactive: 84%
O=C(CCC1N=C2c3ccccc3N=C(SCc3ccc(F)cc3)N2C1=O)NC1CCCCC1 (configuration not stated) | inactive: 74%
CC(=O)c1ccc(NC(=O)c2nc3nc(C)cc(C(F)F)n3n2)cc1 | inactive: 76%
CCOc1ccc(-n2nc(CO)c(C(=O)NCc3cccc(OC)c3)n2)cc1 | active: 41%
Cc1cc(C)cc(-n2ccn(CC(=O)Nc3ccccc3F)c(=O)c2=O)c1 | inactive: 76%
CSc1ncc(C(=O)Nc2cc(Cl)ccc2C)c(-c2ccccc2)n1 | inactive: 74%
CCOC(=O)C1CCCN(c2c3c(nc4cc(-c5ccc(F)cc5)nn24)CCCC3)C1 (configuration not stated) | inactive: 76%
CC(=O)N1CCCc2cc(S(=O)(=O)N3CCN(c4cccc(C(F)(F)F)c4)CC3)ccc21 | inactive: 89%
COc1ccccc1NC(=O)C1CCN(c2cnccn2)CC1 | active: 54%
COC(=O)Cc1c(C)c2cc3c(c(C)c2oc1=O)OCN(CCc1ccc(OC)cc1)C3 | inactive: 55%
CCN(CCN(C)C)C(=O)C1CCN(S(=O)(=O)c2c(C)noc2/C=C/c2ccccc2F)CC1 | inactive: 104%
CCn1c(CNc2cccc(Cl)c2)nnc1SCc1ccccc1 | inactive: 82%
O=C(OC(C(=O)NC1CCCCC1)c1ccccc1)c1ccco1 (configuration not stated) | inactive: 98%
Cc1cc(C)c(NC(=O)Cn2nnc(-c3nc(-c4ccccc4)no3)c2N)c(C)c1 | inactive: 83%
Cc1cc(C)c2c(n1)SCCN2C(=O)Nc1ccc(C(=O)Nc2ccc(C(C)C)cc2)cc1 | inactive: 70%
CCN(CC)c1ccc2cc(-c3nc(-c4cc(OC)c(OC)c(OC)c4)no3)c(=O)oc2c1 | inactive: 87%

Structure (SMILES) | survival
CC(C)c1ccc(Nc2c(-c3ccco3)nc3ccccn23)cc1 | inactive: 42%
COc1cc(NC(=O)c2ccc(-n3cnc4cccnc43)cc2)cc(OC)c1 | inactive: 55%
COc1ccc(/C=C/C(=O)Nc2ccc3nc(N4CCCCC4)cc(C)c3c2)cc1OC | active: 43%
Cc1ccc(S(=O)(=O)N(CC(=O)Nc2ccc3c(c2)OCO3)c2ccc(C)c(Cl)c2)cc1 | inactive: 71%
COc1ccc(CN(Cc2nc3ccccc3c(=O)[nH]2)C(=O)Nc2ccccc2)cc1 | inactive: 68%
Cc1cn2c(=O)cc(COc3ccccc3NC(=O)c3ccc(Cl)cc3)nc2s1 | inactive: 91%
CCOC(=O)c1ccc(NC(=O)CSc2nc3c([nH]c4ccccc43)c(=O)n2C)cc1 | inactive: 83%
Cc1ccc(NC(=O)C2CCC(CNS(=O)(=O)c3ccc4c(c3)CCCC(=O)N4)CC2)c(C)c1 (configuration not stated) | inactive: 86%
Cc1ccccc1-c1noc(-c2cc(-c3ccc(F)cc3)n[nH]2)n1 | inactive: 75%
O=C(/C=C/c1ccco1)NC(=S)NC1CCCCC1 | inactive: 115%
CCCCc1nc2ccccc2n1CC(=O)N(COCC)c1c(C)cccc1CC | active: -12%
Cc1ccc2oc(-c3ccc(Cl)c(NC(=O)c4ccc(OC(C)C)cc4)c3)nc2c1 | inactive: 58%
O=C(O)CSc1nnc(-c2ccc(O)cc2)o1 | inactive: 74%
CCOC(=O)c1noc2nc(C)n(CC(=O)Nc3ccc(OC)c(Cl)c3)c(=O)c12 | inactive: 73%
Cc1cc(N2CCC(C(=O)Nc3ccc(Cl)cc3)CC2)n2nc(C)c(-c3ccc(Cl)cc3)c2n1 | inactive: 92%
Cc1ccc(CC(=O)Nc2c(C(=O)N3CCN(c4ccccc4)CC3)oc3ccccc23)cc1 | inactive: 69%
Cn1c(=O)[nH]c(=O)c2c1nc(NNC=O)n2Cc1ccc(Cl)cc1 | inactive: 80%
CCOc1ccc(-c2cc(C(=O)NCCc3ccccc3)c3c(-c4ccc(C)cc4)[nH]nc3n2)cc1 | inactive: 94%
Cc1cc(C)c2c(=O)c3c(oc2c1)C(=O)N(Cc1ccco1)C3c1ccc(F)cc1 (configuration not stated) | inactive: 53%
